Consider 62 compounds from PubChem BioAssay (NCI).

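Exposure lasted 48 hours, with cells grown in 96-well plates and compounds tested at five concentrations. Abbreviation: GI50, concentration required for 50% inhibition of growth. Definition used: TGI = concentration required for complete inhibition of growth.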

The test system of this experiment is NCI-H322M lung. The experiment can be described thus: NCI-60 cell line screen, 48 h.
With `CCCCCCCCCCCCCCCCP(=O)([O-])OCC[N+](C)(C)C`, the TGI was 37.6 µM. Same read-out and setting: in the case of `O=C(NN=C1CCCCC1)NN=C1CCCCC1` it was more than 100 µM. Turning to `COc1cccc(C2=C(c3cn(C)c4cccc(OC)c34)C(=O)NC2=O)c1`, the GI50 is more than 20.6 µM and the TGI was more than 25 µM.

`COc1cc2c(c(OC)c1OC)-c1ccc(SC)cc1C(=O)CC2` came in with a TGI of more than 100 µM. In the case of `COc1cc([C@@H]2c3cc4c(cc3C(OC3O[C@@H]5COC(C)O[C@H]5[C@H](O)[C@H]3O)C3COC(=O)[C@@H]32)OCO4)cc(OC)c1O` (stereo not given in full), the GI50 was 19.9 µM and the TGI was more than 50 µM.

Regarding `OC(c1ccccc1)(c1cccnc1)C(O)(c1ccccc1)c1cccnc1` (stereo not given), the TGI was more than 100 µM. Still for that read-out and setting: in the case of `O=[N+]([O-])c1cc(Cl)ccc1S(=O)(=O)N1CCCc2cc(Cl)ccc21` it was more than 100 µM. Same read-out and setting: to `COC[C@@H](Cc1ccc(OC)c(OC)c1)[C@@H](COC)Cc1ccc(OC)c(OC)c1` belongs more than 100 µM; to `CN(C)c1ccc(/C=c2/c3cc([N+](=O)[O-])ccc3n3c2cc(-c2ccccc2)[n+]3C)cc1`, 8.5 µM.

On to `C=CCN1CCC2(CC1)NC(=O)c1ccccc1O2`, for which the TGI is more than 100 µM. Regarding `ClCC#CCSc1ncnc2c1ncn2CC#CCCl`, the GI50 was 2.13 µM and the TGI came to 5.02 µM.

Consider `NS(=O)(=O)c1ccc(NC(=O)COC(=O)c2cccc3c(=O)c4ccccc4[nH]c23)cc1`, for which the TGI turned out to be 97.4 µM. The same measure, in the same setting: to `COC(=O)Cc1nc2ccccc2o1` belongs more than 100 µM. For the compound `CC[C@H](NC(=O)[C@H](CS(=O)(=O)CC1CC1)N[C@@H](c1ccc(F)cc1)C(F)(F)F)C(=O)C(=O)NC1CC1`, the GI50 is more than 100 µM and the TGI was more than 100 µM. `COC(=O)C1CC(C(=O)OC)c2nc3cc(C)c(C)cc3nc21` (stereo not given) had a TGI of more than 100 µM. The same measure, in the same setting: in the case of `COc1ccc(C2=NOP(c3ccccc3)(c3ccccc3)(c3ccccc3)C2)cc1` it was more than 100 µM. On the same count and under the same terms, to `CC1CN=C(c2ccc(COc3ccc(C4=NCC(C)N4)cc3)cc2)N1` (stereo not given) belongs more than 100 µM. Same read-out and setting: to `CC1(C)CC2C(C1=O)C1(C)CCCC2(C)C1=O` (stereo not given) belongs more than 100 µM; to `COc1ccccc1N=C1SCCN1C(=S)Nc1ccc(S(=O)(=O)/N=C/N(C)C)cc1`, more than 100 µM. On to `CCN(CC)CCC(=O)c1ccc(Oc2ccc(F)cc2)cc1`, for which the TGI was more than 100 µM. Same read-out and setting: in the case of `Cc1cc(C)c(N=Nc2c(O)c(S(=O)(=O)O)cc3cc(S(=O)(=O)O)ccc23)cc1C` it was more than 100 µM. With `CCOC(=O)c1ccccc1-c1c2ccc(=[N+](C)C)cc-2oc2cc(N(C)C)ccc12`, the GI50 was 0.492 µM and the TGI amounted to 13.5 µM. On the same counts, the results for `COc1cc2c(cc1OC)-c1ncc3cc4c(cc3c1C2)OCO4` are more than 100 µM and more than 100 µM. For `CCCCOc1ccc(/C=N/Nc2cc(C)nc3ccc(Cl)cc23)cc1`, in that order: 1.74 µM and 3.13 µM.

For `COc1ccc(NC(=O)/C=C(C)/C=C/C=C(C)\C=C\C2=C(C)CCCC2(C)C)cc1`, the GI50 was more than 100 µM and the TGI was more than 100 µM.

Regarding `C#CCCCC(=O)N(C(=O)CS(=O)CC)c1ccccc1` (stereo not given), the TGI is more than 100 µM.

`COC(=O)C(Cc1nc2ccccc2[nH]c1=O)C(=O)C(=O)Nc1cc(C(F)(F)F)ccc1Cl` (stereo not given) returned a TGI of 47.8 µM. Still for that read-out and setting: in the case of `COc1ccc(C2C(Cl)C(=O)N2NC(=O)Cc2ccccc2)cc1OC` (stereo not given) it was more than 100 µM. As to `O=C(CC(=O)c1ccccc1)c1ccccc1`, the GI50 was 16.9 µM and the TGI is more than 100 µM.

Compound `CN(C)CCNc1nc2c(no[n+]2[O-])c2ccccc12` showed a TGI of 64.6 µM. Consider `C=CCCC(=O)N1C=CC(=O)[C@H](O)[C@@H]1/C=C/c1ccccc1`, for which the GI50 is 8.71 µM and the TGI was more than 32.5 µM.

`O=C1C[C@H](c2ccc(O)c(O)c2)Oc2cc(O)cc(O)c21` registered a TGI of more than 100 µM.

`COC(=O)C1C2CC3C(OC(=O)C31)C2OC(=O)[C@](OC)(c1ccccc1)C(F)(F)F` (stereo not given in full) came in with a TGI of more than 100 µM.

Regarding `CCOC(=O)NC(=O)c1c[nH]c(=O)[nH]c1=O`, the TGI was more than 100 µM. Same read-out and setting: in the case of `O=S(=O)(/N=C(\NO)Nc1ccc(Cl)cc1)c1ccc(-c2ccccn2)s1` it was more than 100 µM. Same read-out and setting: to `O=C(O)CC(O)(C(=O)O)C(O)C(=O)O` (stereo not given) belongs more than 1000 µM; to `COc1ccc(C(=O)O/N=C2/CCC/C2=C\c2ccccc2)cc1`, more than 100 µM. Turning to `CN(C)CCNc1nc2ccccc2c2c(=O)c3ccccc3sc12`, the GI50 is 1.96 µM and the TGI is 4.86 µM. For `O=C(CCl)Nc1cc(O)c2c(c1)C(=O)c1cccc(O)c1C2=O`, the GI50 is 2.89 µM and the TGI was 8.52 µM. For the compound `CC(=O)n1ccc2c(Cl)ncnc21`, the TGI was more than 100 µM. Consider `O=C(Nc1ccc(I)cc1F)c1cc(I)ccc1O`, for which the GI50 was 1.25 µM. `OC(COc1cccc2ccccc12)CN1CCN(c2ccccc2Cl)CC1` (stereo not given): the GI50 is 13.5 µM and the TGI was found to be 30 µM. `Cn1cc(NC(=O)c2cc(NC(=O)CCCCCCC(=O)Nc3cc(C(=O)Nc4cc(C(=O)NCCC(=N)N)n(C)c4)n(C)c3)cn2C)cc1C(=O)NCCC(=N)N`: the TGI was more than 100 µM. In turn, `O=C1c2ccccc2-c2c1c1ccccc1c(=O)n2-c1ccccc1` came in with a TGI of more than 100 µM.

`Cn1ncc(-c2ccc3c(=O)[nH]nc(CN)c3c2)c1-c1c(F)cc2ccccc2c1C#N`: the GI50 was 7.07 µM and the TGI came to 26.4 µM.

Regarding `CC1CC[C@@]2(OC1)OC1C[C@H]3[C@@H]4CCC5CC(O)CC[C@]5(C)[C@H]4C/C(=N\N(C)C)[C@]3(C)C1[C@@H]2C` (stereo not given in full), the TGI was 69.3 µM. The same measure, in the same setting: to `O=C(/C(=C/c1ccccc1)c1ccccc1)N1c2ccccc2CC1c1c[nH]c2ccccc12` (stereo not given) belongs more than 100 µM. As to `NC(N)=NCC(N)C(=O)O` (stereo not given), the TGI is more than 100 µM. On the same count and under the same terms, to `COCCNC1CCC2(SCCS2)c2[nH]c3ccccc3c21` (stereo not given) belongs more than 100 µM.

Take `O=S(=O)(O)ONC1=NCCN1`: the GI50 is more than 100 µM and the TGI was more than 100 µM. Take `O=P1(c2ccccc2)C2=CCC=CC2C(c2ccccc2)N1Cc1ccccc1` (stereo not given): the TGI is 31.7 µM.

Compound `COc1ccc(N2C(=O)C3CC4=CC(=O)C[C@H]4[C@H]32)cc1` (stereo not given in full) displayed a TGI of more than 100 µM. `OCC(O)C(OC1OC(CO)C(O)C(O)C1O)c1nn(-c2ccccc2)c2nc3cc(Cl)ccc3nc12` (stereo not given) gave a TGI of more than 100 µM.

On to `Cc1nnc(-c2ccc(-c3nc4ccccc4o3)cc2)o1`, for which the GI50 was 30.1 µM and the TGI was more than 100 µM. For `CCc1nc(-n2c(-c3ccccc3)nc3ccccc3c2=O)nc(N)c1-c1ccc(Cl)cc1`, in that order: 37.8 µM and more than 100 µM. `COc1ccc2nc3cccc(C(=O)NCCN(C)C)c3nc2c1` came in with a TGI of 11.1 µM.

For `COc1c(N2CCN(Cn3c(O)c(N=NC(=O)c4ccncc4)c4cc(F)ccc43)C(C)C2)c(F)cc2c(=O)c(C(=O)O)cn(C3CC3)c12` (stereo not given), the GI50 was 44.3 µM and the TGI was more than 50 µM. For `CN(C)CCNc1nc(-c2cccs2)cc(-c2cccs2)n1`, the TGI worked out at 26 µM. The same measure, in the same setting: in the case of `CC(=O)OCC1OC(N2C(S)=C(C#N)C(c3ccco3)C(C(C)=O)=C2c2ccccc2)C(OC(C)=O)C(OC(C)=O)C1OC(C)=O` (stereo not given) it was more than 100 µM; in that of `CN(C)CC1CCCC/C1=N/OC(=O)c1ccc(Cl)c(Cl)c1` (stereo not given), more than 100 µM. Still for that read-out and setting: in the case of `CCCCNC(=S)Nc1nc(C(=O)NNC(=O)c2ccccc2)cs1` it was 40.9 µM; in that of `C=C1c2nc3ccccc3n2C=C(c2ccc(OC)cc2)N1c1ccc(OCCN2CCOCC2)cc1`, more than 100 µM.
